{"source": "paper PMC10668032", "note": "This is one part of the list. At the low end of the ranking the order means little."}
{"biological_target": "SIX1 homeodomain (reference allele) (UniProt Q15475)", "test": "universal protein binding microarray", "details": "Universal all-10-mer PBM (8x60K, AMADID 030236), 300 nM GST-tagged protein, Alexa Fluor 488 anti-GST; buffer, salt, pH and temperature not stated; high values mean tight binding; most listed sequences are background and not binding sites; double strand, one strand shown", "units": {"binding signal": "E-score"}}
{"sequence": "TATCCCGA", "binding signal": 0.315}
{"sequence": "ACGTAGCT", "binding signal": -0.0152}
{"sequence": "CGAGGGAG", "binding signal": -0.146}
{"sequence": "AGTTCAGA", "binding signal": -0.0763}
{"sequence": "GAAGGGAA", "binding signal": -0.168}
{"sequence": "CACCATTC", "binding signal": 0.107}
{"sequence": "AGCGGCAA", "binding signal": -0.151}
{"sequence": "AGAAGCAG", "binding signal": -0.0573}
{"sequence": "GAAGTCCA", "binding signal": -0.169}
{"sequence": "GAGACAAA", "binding signal": -0.0705}
{"sequence": "TCAATCGA", "binding signal": -0.0537}
{"sequence": "GTAAAATA", "binding signal": -0.103}
{"sequence": "AAGAAGTA", "binding signal": -0.0535}
{"sequence": "TATGGAGA", "binding signal": 0.0397}
{"sequence": "GCAACCTA", "binding signal": -0.0971}
{"sequence": "AGTGCTAG", "binding signal": 0.0542}
{"sequence": "GGCTAAAA", "binding signal": -0.239}
{"sequence": "ATCAAGGA", "binding signal": 0.174}
{"sequence": "CGAACCCC", "binding signal": 0.0469}
{"sequence": "ATTGCCAC", "binding signal": -0.206}
{"sequence": "ATTGGAGA", "binding signal": 0.0346}
{"sequence": "GATCAATC", "binding signal": 0.366}
{"sequence": "GAACATTA", "binding signal": -0.212}
{"sequence": "ATACGTTA", "binding signal": 0.164}
{"sequence": "AAGTGCGA", "binding signal": -0.0732}
{"sequence": "CAAATCAG", "binding signal": -0.171}
{"sequence": "TCAAGCAA", "binding signal": -0.214}
{"sequence": "ATCGCGGA", "binding signal": 0.232}
{"sequence": "ACACGAGG", "binding signal": 0.0992}
{"sequence": "CCTCATGA", "binding signal": 0.024}
{"sequence": "AGTGAGCA", "binding signal": -0.0864}
{"sequence": "ATAGTATA", "binding signal": 0.29}
{"sequence": "AAAAGCAG", "binding signal": -0.317}
{"sequence": "ACGACACC", "binding signal": 0.432}
{"sequence": "CCCTTTAC", "binding signal": -0.00779}
{"sequence": "AAATCTCC", "binding signal": -0.113}
{"sequence": "CAGCGGAG", "binding signal": 0.0225}
{"sequence": "AGGACGTC", "binding signal": -0.0603}
{"sequence": "AACTGCCT", "binding signal": -0.0645}
{"sequence": "GTTGAGGA", "binding signal": -0.0318}
{"sequence": "TAAGGGAA", "binding signal": -0.249}
{"sequence": "CGGGAGGC", "binding signal": -0.196}
{"sequence": "TATGGGCA", "binding signal": 0.123}
{"sequence": "CCTGAACG", "binding signal": 0.122}
{"sequence": "CTAGTGTC", "binding signal": 0.0995}
{"sequence": "AACCACCG", "binding signal": -0.059}
{"sequence": "CTGAAGGC", "binding signal": -0.311}
{"sequence": "ATATCCTC", "binding signal": 0.426}
{"sequence": "ATCGACCG", "binding signal": -0.0695}
{"sequence": "AGCAGGAG", "binding signal": 0.0752}
{"sequence": "GATTGTGA", "binding signal": 0.0817}
{"sequence": "GTCGGTTA", "binding signal": -0.127}
{"sequence": "ACGTGTAG", "binding signal": -0.125}
{"sequence": "ACTAACCG", "binding signal": -0.119}
{"sequence": "GTGGCAAC", "binding signal": -0.189}
{"sequence": "ACGACGTG", "binding signal": -0.232}
{"sequence": "TAGCTGAA", "binding signal": -0.115}
{"sequence": "CAAGATAC", "binding signal": 0.349}
{"sequence": "ACTGACAA", "binding signal": -0.133}
{"sequence": "CAGATCTA", "binding signal": 0.21}
{"sequence": "CACTACAA", "binding signal": -0.0395}
{"sequence": "ACACGGCG", "binding signal": -0.0684}
{"sequence": "TCCCTTAA", "binding signal": -0.00882}
{"sequence": "CCCCAACA", "binding signal": 0.0319}
{"sequence": "CACTCGAA", "binding signal": -0.0663}
{"sequence": "CGTCTACC", "binding signal": 0.0937}
{"sequence": "CCGATAGC", "binding signal": 0.329}
{"sequence": "AGCCACTG", "binding signal": 0.00938}
{"sequence": "GAGGTTGA", "binding signal": -0.142}
{"sequence": "CGGACAAC", "binding signal": -0.0255}
{"sequence": "TACCGGTA", "binding signal": 0.206}
{"sequence": "AAGAATGC", "binding signal": -0.155}
{"sequence": "CAACCCAC", "binding signal": -0.0843}
{"sequence": "CTTTTTAA", "binding signal": -0.202}
{"sequence": "GGAGTCCA", "binding signal": -0.248}
{"sequence": "TCAGCACA", "binding signal": -0.11}
{"sequence": "CTAACGTA", "binding signal": 0.0315}
{"sequence": "ATAGTCGA", "binding signal": 0.0455}
{"sequence": "ACCCAGGA", "binding signal": 0.15}
{"sequence": "AAAAGGGG", "binding signal": -0.0983}
{"sequence": "CACCGGAC", "binding signal": 0.0612}
{"sequence": "ATCGAGTA", "binding signal": 0.226}
{"sequence": "ACGTTTAC", "binding signal": -0.213}
{"sequence": "GACTTACC", "binding signal": 0.0442}
{"sequence": "TAGTACAA", "binding signal": -0.033}
{"sequence": "GTGCCCAC", "binding signal": -0.0546}
{"sequence": "ACTTGACT", "binding signal": -0.229}
{"sequence": "AAATGCGT", "binding signal": -0.0206}
{"sequence": "GATCACCC", "binding signal": 0.407}
{"sequence": "AAGATTTC", "binding signal": -0.198}
{"sequence": "CACACCCG", "binding signal": 0.0478}
{"sequence": "CAGTTAAG", "binding signal": -0.0403}
{"sequence": "CGTACAAA", "binding signal": -0.151}
{"sequence": "CTGTGGCA", "binding signal": -0.295}
{"sequence": "AACGGGTA", "binding signal": 0.159}
{"sequence": "CCACTTCG", "binding signal": -0.0848}
{"sequence": "ACGTCCAG", "binding signal": -0.197}
{"sequence": "GCAATTGC", "binding signal": -0.0561}
{"sequence": "AGCAATCC", "binding signal": 0.081}
{"sequence": "AGGTCTAC", "binding signal": -0.0295}
{"sequence": "CGTCATCA", "binding signal": 0.114}
{"sequence": "AGAATGCG", "binding signal": -0.114}
{"sequence": "CAAGGAGA", "binding signal": -0.0267}
{"sequence": "GGGCTATA", "binding signal": 0.2}
{"sequence": "AATTAGGG", "binding signal": -0.0389}
{"sequence": "AGGGCAAG", "binding signal": -0.00817}
{"sequence": "AACATAGT", "binding signal": -0.104}
{"sequence": "GATGCCAC", "binding signal": -0.185}
{"sequence": "GTCTAGAC", "binding signal": 0.0275}
{"sequence": "AGCCGAGA", "binding signal": 0.0266}
{"sequence": "ACCGTCGC", "binding signal": -0.0519}
{"sequence": "ATTAGACG", "binding signal": 0.132}
{"sequence": "CTACGCTC", "binding signal": -0.0764}
{"sequence": "GGGTGGAC", "binding signal": -0.211}
{"sequence": "GCCGGCGA", "binding signal": 0.0376}
{"sequence": "CATTAAAG", "binding signal": -0.0889}
{"sequence": "AATCCCGG", "binding signal": 0.0651}
{"sequence": "ACTGGTTA", "binding signal": 0.0425}
{"sequence": "GGACGCGA", "binding signal": 0.102}
{"sequence": "ACAGGGAT", "binding signal": 0.297}
{"sequence": "AGGGCATC", "binding signal": -0.0524}
{"sequence": "AGTGGATG", "binding signal": -0.14}
{"sequence": "TAAGAAGA", "binding signal": 0.0544}
{"sequence": "AGTGGACA", "binding signal": 0.0503}
{"sequence": "CGCGCTAC", "binding signal": -0.195}
{"sequence": "ACTTAAAA", "binding signal": -0.226}
{"sequence": "AGCTGAAA", "binding signal": -0.224}
{"sequence": "ATAAGGAC", "binding signal": -0.023}
{"sequence": "AAGTTTTC", "binding signal": -0.253}
{"sequence": "CCTTATCC", "binding signal": 0.137}
{"sequence": "ATCCGGTC", "binding signal": 0.318}
{"sequence": "GCCGGCCA", "binding signal": -0.191}
{"sequence": "AATACAAA", "binding signal": 0.0403}
{"sequence": "AACCTCTG", "binding signal": -0.068}
{"sequence": "GAGTACTA", "binding signal": 0.0315}
{"sequence": "ATCTATTG", "binding signal": 0.175}
{"sequence": "CCGCATAC", "binding signal": 0.168}
{"sequence": "CAGCGCCA", "binding signal": -0.202}
{"sequence": "AAGGCAGA", "binding signal": -0.116}
{"sequence": "ACCTGAGG", "binding signal": -0.123}
{"sequence": "ACTAACGG", "binding signal": -0.102}
{"sequence": "TCTAGGCA", "binding signal": -0.0567}
{"sequence": "AGACCTTG", "binding signal": -0.169}
{"sequence": "TCAAATGA", "binding signal": -0.0115}
{"sequence": "CGAGTTAG", "binding signal": -0.0111}
{"sequence": "CGCTATTA", "binding signal": 0.1}
{"sequence": "GATAGCCA", "binding signal": 0.312}
{"sequence": "CGCGTCCC", "binding signal": -0.132}
{"sequence": "AGCCCTGA", "binding signal": -0.0409}
{"sequence": "ACCCCATA", "binding signal": 0.279}
{"sequence": "ATGATGAC", "binding signal": 0.116}
{"sequence": "ATCATAAC", "binding signal": 0.281}
{"sequence": "CACGGAGG", "binding signal": 0.0245}
{"sequence": "AATGTAAG", "binding signal": -0.112}
{"sequence": "GCATTAGC", "binding signal": -0.229}
{"sequence": "TAAAATTA", "binding signal": -0.0945}
{"sequence": "CGCGCCAA", "binding signal": -0.314}
{"sequence": "CCAATTCA", "binding signal": 0.0559}
{"sequence": "TAAAGTTA", "binding signal": 0.0663}
{"sequence": "TCCACGAA", "binding signal": -0.0824}
{"sequence": "CATCCTTA", "binding signal": -0.0782}
{"sequence": "AGTCAACA", "binding signal": -0.263}
{"sequence": "AAACGCGT", "binding signal": -0.129}
{"sequence": "CAATAACA", "binding signal": -0.0178}
{"sequence": "GGTCTCAA", "binding signal": 0.114}
{"sequence": "CGCATCCA", "binding signal": 0.0872}
{"sequence": "GAGTTTCA", "binding signal": -0.163}
{"sequence": "ATCGTGAA", "binding signal": 0.0522}
{"sequence": "CGCTAAAG", "binding signal": -0.29}
{"sequence": "AGTAGTGA", "binding signal": 0.0217}
{"sequence": "GAAGGATC", "binding signal": 0.39}
{"sequence": "GGCGAACC", "binding signal": 0.103}
